# Results reported in paper PMC4336329 (PLoS ONE, 2015).
# About 2,200 (0.71%) of roughly 310,000 compounds showed an effect of 50% or more. Effects have a minus sign here. The list shows a part of the results.
# Target: human ether-à-go-go-related gene (hERG) potassium channel (human, UniProt Q12809)
# Assay: primary screen, population patch clamp on CHO cells stably expressing hERG
# Sequence of human ether-à-go-go-related gene (hERG) potassium channel (Q12809 whole entry, looked up): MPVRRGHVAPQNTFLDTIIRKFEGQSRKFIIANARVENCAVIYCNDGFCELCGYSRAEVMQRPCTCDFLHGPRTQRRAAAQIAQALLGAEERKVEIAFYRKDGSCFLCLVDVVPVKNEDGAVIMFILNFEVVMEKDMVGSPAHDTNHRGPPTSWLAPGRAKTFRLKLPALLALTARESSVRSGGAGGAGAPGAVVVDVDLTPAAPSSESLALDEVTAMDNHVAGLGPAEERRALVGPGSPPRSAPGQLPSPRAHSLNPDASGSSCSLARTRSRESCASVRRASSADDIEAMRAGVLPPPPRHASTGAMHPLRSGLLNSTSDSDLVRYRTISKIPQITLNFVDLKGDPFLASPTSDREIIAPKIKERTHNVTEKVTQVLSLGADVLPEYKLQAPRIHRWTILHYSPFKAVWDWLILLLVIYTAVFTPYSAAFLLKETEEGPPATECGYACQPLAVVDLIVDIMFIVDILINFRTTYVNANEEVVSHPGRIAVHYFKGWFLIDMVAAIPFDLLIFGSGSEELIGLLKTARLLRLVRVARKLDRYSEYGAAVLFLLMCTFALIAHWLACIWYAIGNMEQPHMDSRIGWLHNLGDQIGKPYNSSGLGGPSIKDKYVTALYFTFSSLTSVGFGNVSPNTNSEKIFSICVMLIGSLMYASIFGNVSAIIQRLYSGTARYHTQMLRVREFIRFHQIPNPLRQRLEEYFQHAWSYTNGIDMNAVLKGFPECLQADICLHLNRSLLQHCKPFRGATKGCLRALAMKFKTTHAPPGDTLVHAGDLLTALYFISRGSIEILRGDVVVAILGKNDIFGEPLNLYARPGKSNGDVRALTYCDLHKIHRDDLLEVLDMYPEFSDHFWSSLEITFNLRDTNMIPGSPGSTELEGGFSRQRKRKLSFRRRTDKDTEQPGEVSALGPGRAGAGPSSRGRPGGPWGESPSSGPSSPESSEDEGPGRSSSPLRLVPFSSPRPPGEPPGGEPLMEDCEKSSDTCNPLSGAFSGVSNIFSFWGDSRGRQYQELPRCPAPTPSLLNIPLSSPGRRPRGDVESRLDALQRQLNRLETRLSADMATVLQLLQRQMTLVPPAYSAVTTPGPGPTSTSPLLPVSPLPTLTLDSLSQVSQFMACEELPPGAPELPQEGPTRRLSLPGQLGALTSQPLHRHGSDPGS
row,SMILES,"hERG current change (%, negative = inhibition) at 1uM"
1,COC(=O)C1=C(c2ccc(F)cc2OCc2ccccc2)C[C@@H]2CC[C@H]1N2C(=O)NCCCOC(C)C,6.05%
2,COc1ccc2[nH]c(=O)c(CN(CC3CCCO3)C(=S)Nc3ccccc3)cc2c1 (stereo not shown),15.7%
3,Cc1ccc(OCCN2C(=O)c3ccccc3C2=O)c([N+](=O)[O-])c1,7.81%
4,Cc1noc(C)c1CSc1nnnn1-c1ccc(Cl)cc1,6.35%
5,Cc1cc(C)c(C#N)c(SCC2COc3ccccc3O2)n1 (stereo not shown),20.9%
6,COc1cccc(NC(=O)Cn2nc(Cc3cccnc3)c3ccccc3c2=O)c1,-8.3%
7,O=C(O)c1ccc(C(=O)Nc2ccc(F)cc2)cc1,14.7%
8,Cc1ccccc1Nc1nc(N)nc(CSc2nnnn2C)n1,0.716%
9,COc1cc2c(cc1OC)C(C)N(C(=O)CCNC(=O)c1ccccc1)CC2 (stereo not shown),14%
10,N#CCC(=O)NC1CCC(CC2CCC(NC(=O)CC#N)CC2)CC1 (stereo not shown),10%
11,CC1=CS/C(=C(/C#N)C(=O)NCc2ccco2)N1c1ccccc1,8.61%
12,COc1ccc(-c2nnc(SCC(=O)N3CCCCC3)o2)cc1OC,-2.17%
13,CCn1c(SCC(=O)NCc2ccco2)nnc1-c1cccs1,1.19%
14,Cc1noc(C)c1C(=O)OCC(=O)NC(=O)NC12CC3CC(CC(C3)C1)C2,6.63%
15,CCCCn1c(O)c(C(CC)=NCc2ccc3c(c2)OCO3)c(=O)[nH]c1=O,-14.7%
16,Nc1nc(SCC(=O)N2CCCCC2)[nH]c(=O)c1NC(=O)c1ccccc1F,11.1%
17,O=c1c2[nH]cnc2n(-c2cccc(Br)c2)c(=O)n1Cc1ccccc1,15.9%
18,COC(=O)c1ccccc1NC(=O)C1(S(=O)(=O)c2ccc(Cl)cc2)CC1,7.49%
19,COc1ccc(S(=O)(=O)N(C(=O)c2ccco2)c2cc3sc(=O)oc3c3ccccc23)cc1,2.24%
20,O=c1cc(CSc2nnnn2-c2ccccc2)nc(Nc2ccc(F)cc2)[nH]1,-4.12%
21,NC(=O)Cn1cc(/C=N/NC(=O)c2ccc(Cn3cc(Cl)cn3)o2)c(-c2ccccc2)n1,8.64%
22,Cc1ccc(OCCC(=O)OCC(=O)c2c(N)n(CC(C)C)c(=O)n(C)c2=O)cc1,-42.3%

row,SMILES,"hERG current change (%, negative = inhibition) at 1uM"
1,CCOC(=O)c1c(NC(=O)COC(=O)CCS(=O)(=O)c2ccc(C)cc2)sc(C)c1C,9.46%
2,COCCNC(=O)C(=O)N/N=C/c1cccs1,13.8%
3,Oc1ccc(Cc2ncc(C(F)(F)F)cc2Cl)cc1,8.51%
4,Cc1c(NC(=O)CN2CC(C)OC(C)C2)c(=O)n(-c2ccccc2)n1C.O=C(O)C(=O)O (stereo not shown),7.03%
5,Cc1cc(Br)ccc1NC(=O)CN(C)C(=O)CSC(=S)N1CCCC1,1.23%
6,COc1cc(NC(=S)NC(=O)c2ccccc2F)ccc1NC(=O)c1ccco1,7.37%
7,Cc1ccc(C)c(-c2csc(NC(=O)c3c(C)noc3C)n2)c1,-2.01%
8,CCC(=O)N1CCCc2cc(S(=O)(=O)N3CCCc4ccccc43)ccc21,2.75%
9,COc1cc(CC(=O)Nc2nc(-c3ccc(F)c(F)c3)cs2)cc(OC)c1OC,11.9%
10,COc1ccc(NC(=O)CC2SC3=NCCN3C2=O)cc1 (stereo not shown),13.9%
11,COc1cc(OC)nc(Oc2cc(/C=N/O)ccc2OC)n1,12.3%
12,CC(C)(C)NCC(O)(c1ccc(Cl)cc1)c1ccc(Cl)cc1,13%
13,O=C(CN1C(=O)NC2(CCCCCC2)C1=O)Nc1ccc(S(=O)(=O)N2CCOCC2)cc1,9.34%
14,CC(=O)N(CC1CCCO1)c1nnc(-c2cnccn2)s1 (stereo not shown),14.6%
15,Cc1ccc(NC(=O)C(=O)NNC(=O)c2ccccc2C)cc1Cl,4.99%
16,COC(=O)C1(C)NC(c2ccc(O)cc2)C2C(=O)N(c3ccc(F)cc3)C(=O)C21 (stereo not shown),11%
17,N/C(=N\O)c1ccc(NC(=O)c2ccc(Br)o2)cc1,5.54%
18,CN(/N=C/c1cc(Br)cc(Br)c1O)c1cccc(C(F)(F)F)n1,16.7%
19,CCCCN(CCCC)S(=O)(=O)c1ccc(OC)c2ncccc12,12.1%
20,Cc1ccc(S(=O)(=O)NNC2=NS(=O)(=O)c3ccccc32)c(C)c1,11.8%
21,CC(=O)c1ccc(OCC(O)CN2CCOCC2)cc1.Cl (stereo not shown),12.3%
